# In the supplement of paper PMC3334620:
# In all, about 33,000 sequences were measured (“E-score (-0.5 to 0.5)”: median about -0.04, highest 2% from about 0.36 on). The list shows a part of the results.
# Target: T1, Hmlalpha2 (UniProt P0CY09)
# T1 sequence: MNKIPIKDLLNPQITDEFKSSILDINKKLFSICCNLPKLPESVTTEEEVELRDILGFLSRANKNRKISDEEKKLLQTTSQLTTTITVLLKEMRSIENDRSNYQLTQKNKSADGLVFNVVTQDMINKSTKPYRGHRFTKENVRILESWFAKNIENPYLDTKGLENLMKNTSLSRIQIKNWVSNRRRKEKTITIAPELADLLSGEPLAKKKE
# Assay: PBM E-score (8-mer binding enrichment) (E-score (-0.5 to 0.5)); higher = stronger / more preferred TF binding; most listed sequences are background and not binding sites
# Conditions: protein concentration: 200 nM; construct: GST-full length
# Procedure, shortened: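 Full-length yeast transcription factors or their DNA-binding domains, GST-tagged and expressed with PURExpress, were applied at about 100-200 nM to universal all-10-mer Agilent arrays. These arrays had been made double-stranded by primer extension on fresh or once-stripped slides. Detection used fluorescent anti-GST, normalisation used masliner, and E-scores for ungapped eight-base words pooled with reverse complements came from the Universal PBM Analysis Suite.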
row,Sequence,PBM E-score
1,ACACGAAT,0.356
2,GGACGCAC,-0.22
3,GTAGAATA,0.308
4,TCCACGCA,-0.0321
5,CTAGCAAC,0.107
6,ACGTGACG,0.0289
7,CACGGAAA,0.146
8,ATCACAAT,-0.00916
9,GAGTCCGC,-0.243
10,TAGATGGA,0.0236
11,CCCAGTCC,-0.121
12,CCACAGCC,-0.131
13,CCCACTGA,-0.133
14,AGCAGACA,-0.0775
15,CACAAAGG,-0.0549
16,ACGGACAT,-0.0204
17,ACCAAGGG,-0.184
18,AATTCAAA,0.148
19,GGGTGTAA,0.342
20,ATAGTCAA,-0.0286
21,GGTCGCGA,-0.177
22,AGGGTGCC,-0.313
23,GTGACATA,0.246
24,CTCCAGAG,-0.337
25,CCTCCTAG,-0.298

row,Sequence,PBM E-score
1,AGGACTGG,-0.0983
2,ACCTAATA,0.0446
3,ATCCTAAA,-0.188
4,GGACATGA,-0.0328
5,ACAACTAA,0.258
6,ACTGACAA,0.218
7,GCAAGTCA,-0.0183
8,GTGCTTAA,0.0902
9,CCAGAAGG,-0.0879
10,GACCTCCC,-0.345
11,ACATTTTC,0.106
12,ATCGTCAC,0.123
13,CGCTAACC,-0.0928
14,TAGGATAA,-0.0114
15,TCGGGGCA,-0.223
16,TCATCGGA,-0.0992
17,AGGAAGAC,-0.0908
18,ACACGATG,0.388
19,GGTATAAC,0.0399
20,GCATTAAC,0.249
21,ATCGGCGC,0.133
22,ACGCCTCA,0.0996
23,AAATAAGG,-0.0558
24,AGCTCCAC,-0.194
25,CACCAGAG,-0.0421

row,Sequence,PBM E-score
1,TAGCGACA,0.124
2,GTTACTTA,0.141
3,AGTTTTAG,-0.017
4,GCGCCCGA,-0.126
5,AAGACGCA,0.00981
6,CGTCTTGA,-0.0718
7,AACAGAAA,0.169
8,ACGATGGC,-0.0988
9,GTACAACA,0.395
10,GTACACAA,0.373
11,GCAGGAAC,-0.205
12,CTATGACA,0.0374
13,CATGCCGG,0.156
14,CGCGTTCA,0.302
15,ATACATGC,0.427
16,CCATTATA,-0.101
17,ATGGTTTA,0.122
18,CTCGTTGC,0.227
19,TACTGGGA,-0.0503
20,TGTGTTAA,0.471
21,ACCCGAGG,-0.126
22,CGAAAGAA,-0.0556
23,AGTGCGAC,-0.234
24,AGCGAGGG,-0.264
25,AGATTTAG,-0.00902

row,Sequence,PBM E-score
1,TACATTAA,0.336
2,CTCTTGTC,-0.0028
3,ATGGCCAA,-0.0102
4,GTGTAATA,0.456
5,GCGGGCCA,-0.246
6,ATCAAAGG,-0.197
7,ACGCCATC,-0.107
8,CAAGGGCA,-0.179
9,ATGAGACC,-0.0323
10,ATTCATGA,0.11
11,CCACCGAA,-0.0581
12,ACATGGTA,0.397
13,AATTATCC,0.12
14,CTAAGAAG,0.056
15,CAAACCCA,0.0867
16,GAGCGACC,-0.227
17,CACTCCCG,-0.195
18,CGGACAAG,-0.065
19,AGTAAATC,0.0526
20,AACACGCC,0.359
21,GGATAAGA,-0.195
22,AAGATTGA,0.0865
23,GAAATGTC,-0.0503
24,GAATAGTA,0.0834
25,CGTATCCA,-0.0445

row,Sequence,PBM E-score
1,ACGGACTC,-0.148
2,ACTGAGAA,-0.145
3,GCAACCCC,-0.297
4,ATGACGAG,-0.00166
5,CGGGATTA,0.113
6,ATAAATGG,-0.0033
7,ACATTTAT,0.172
8,GCTCTTTA,-0.116
9,CTCTCTGC,-0.211
10,ACCCACGT,0.14
11,AAACGGTA,0.0331
12,ATCGTTGA,0.0647
13,AGCATTAG,-0.0284
14,CACCTTAG,-0.0391
15,ATCGTCAA,0.0582
16,ACTCTACA,0.33
17,AGCACGCT,0.00597
18,CACTCCGA,-0.161
19,TCCATGCA,-0.00149
20,AAAGGTCG,-0.202
21,CTTACGTC,-0.0765
22,TCATTAAA,0.263
23,GTTATGGA,0.143
24,CTTAGTAA,0.257
25,TCTTAAAA,-0.0174

row,Sequence,PBM E-score
1,ACTGTAGG,0.0358
2,ACGAAGGA,-0.00764
3,GGACGCGA,-0.0509
4,AGCTGTAT,-0.027
5,ACCTTACC,0.0897
6,CCGCTAGC,-0.337
7,TAGCAACA,0.204
8,AGTGGTTG,0.107
9,ACGGCGTG,0.0339
10,CGAGTTTC,-0.0908
11,GAATAGCC,-0.332
12,GAAGGACC,-0.245
13,ATGAACAA,0.156
14,AACAGCGA,-0.0401
15,GAGGCTAC,-0.193
16,AATAGGCA,-0.0175
17,CGAATGTC,0.0317
18,AGTGCTTG,0.11
19,AACATACG,0.363
20,CTCTCCTA,0.0238
21,ATTTGCCG,-0.0971
22,AATGCCCG,-0.274
23,AAGCACCA,-0.113
24,CCTCTGCC,-0.274
25,ACCAATAG,-0.129

row,Sequence,PBM E-score
1,CACTGGAA,-0.0941
2,AAGCTCGT,0.0158
3,GAGCGAGA,-0.0406
4,ATTCTTTC,0.0138
5,GACAAGCA,0.0167
6,ACTGGAAA,0.0244
7,GGCCTGAC,-0.316
8,ACATTAGG,0.0208
9,GAGGCGAA,-0.175
10,CTTGACAA,0.24
11,CGAGGGTC,-0.208
12,ATGTGGGA,-0.0345
13,GCTGTACA,0.154
14,AATTTGCG,0.0144
15,GAACATTC,0.0675
16,ACAGAAGT,0.0501
17,TCACCTGA,-0.136
18,ATCGATCA,-0.0362
19,CCGTAAAC,0.199
20,CCATGGAC,-0.195
21,GCCAGCCC,-0.215
22,AGGCGACC,-0.0251
